By IC50 is meant the dose at which the fit gives 50% viability; a limit (>, <) means that the fit lies beyond the doses tested. AUC, from the same fit, is the share of area under the viability curve across the 256-fold dose range: 1 means no effect, lower means more sensitive. For some assays here: An inferred top dose was calculated from the reported fits.
Columns and labels:
Test in all cases: Viability of human cancer cell lines after 72 h of drug (GDSC screen)
AG-014699 = compound: CNCc1ccc(-c2[nH]c3cc(F)cc4c3c2CCNC4=O)cc1 [AG-014699]; conditions: top dose 5 µM; top dose inferred
Protocol: (§1)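 Human cancer cell lines in 384-well plates, medium with 10% serum, drug for 72 h over a 256-fold dose range (nine 2-fold or five 4-fold steps up to the top dose). Adherent lines were fixed and stained with the nucleic acid dye Syto60, suspension lines read with resazurin; signal relative to control wells, capped at 0 and 100%. One two-parameter sigmoid per drug and line, fitted in a mixed model over all curves with the slope shared within a line.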

S-Trityl-L-cysteine = compound: N[C@@H](CSC(c1ccccc1)(c1ccccc1)c1ccccc1)C(=O)O [S-Trityl-L-cysteine]; conditions: top dose 5.12 µM; top dose inferred
Protocol: as §1

QL-XI-92 = compound: C=CC(=O)Nc1cc(NC(=O)c2ccc(C)c(NC(=O)c3ccno3)c2)cc(C(F)(F)F)c1 [QL-XI-92]; conditions: top dose 10.24 µM; top dose inferred
Protocol: as §1

EHT 1864 = compound: O=c1cc(CN2CCOCC2)occ1OCCCCCSc1ccnc2cc(C(F)(F)F)ccc12 [EHT 1864]; conditions: top dose 10 µM; top dose inferred
Protocol: as §1

Vinorelbine = compound: CCC1=C[C@@H]2CN(C1)Cc1c([nH]c3ccccc13)[C@@](C(=O)OC)(c1cc3c(cc1OC)N(C)[C@H]1[C@@](O)(C(=O)OC)[C@H](OC(C)=O)[C@]4(CC)C=CCN5CC[C@]31[C@@H]54)C2 [Vinorelbine]; conditions: top dose 0.064 µM; top dose inferred
Protocol: as §1

Gefitinib = compound: COc1cc2ncnc(Nc3ccc(F)c(Cl)c3)c2cc1OCCCN1CCOCC1 [Gefitinib]; conditions: top dose 0.5 µM
Protocol: as §1

Phenformin = compound: N=C(N)NC(=N)NCCc1ccccc1 [Phenformin]; conditions: top dose 4000 µM; top dose inferred
Protocol: as §1

WHI-P97 = compound: COc1cc2ncnc(Nc3cc(Br)c(O)c(Br)c3)c2cc1OC [WHI-P97]; conditions: top dose 10.24 µM; top dose inferred
Protocol: as §1

NU-7441 = compound: O=c1cc(N2CCOCC2)oc2c(-c3cccc4c3sc3ccccc34)cccc12 [NU-7441]; conditions: top dose 2 µM; top dose inferred
Protocol: as §1

XL-184 = compound: COc1cc2nccc(Oc3ccc(NC(=O)C4(C(=O)Nc5ccc(F)cc5)CC4)cc3)c2cc1OC [XL-184]; conditions: top dose 5.12 µM; top dose inferred
Protocol: as §1

Erlotinib = compound: C#Cc1cccc(Nc2ncnc3cc(OCCOC)c(OCCOC)cc23)c1 [Erlotinib]; conditions: top dose 2 µM
Protocol: as §1

Row | Cell Line | AUC (AG-014699) | IC50 (AG-014699) [µM] | AUC (S-Trityl-L-cysteine) | IC50 (S-Trityl-L-cysteine) [µM] | AUC (QL-XI-92) | IC50 (QL-XI-92) [µM] | AUC (EHT 1864) | IC50 (EHT 1864) [µM] | AUC (Vinorelbine) | IC50 (Vinorelbine) [µM] | AUC (Gefitinib) | IC50 (Gefitinib) [µM] | AUC (Phenformin) | IC50 (Phenformin) [µM] | AUC (WHI-P97) | IC50 (WHI-P97) [µM] | AUC (NU-7441) | IC50 (NU-7441) [µM] | AUC (XL-184) | IC50 (XL-184) [µM] | AUC (Erlotinib) | IC50 (Erlotinib) [µM]
1 | 8-MG-BA (glioma, adherent) | 0.874 | 4.34 | 0.912 | > 5.12 | 0.864 | 8.02 | 0.94 | > 10 | 0.373 | 0.00183 | 0.964 | > 0.5 | 0.695 | 849 | 0.969 | > 10.2 | 0.949 | > 2 | 0.937 | > 5.12 | 0.98 | > 2
2 | A388 (skin, adherent) | 0.976 | > 5 | 0.635 | 0.799 | 0.928 | > 10.2 | 0.978 | > 10 | 0.506 | 0.00417 | 0.857 | > 0.5 | 0.955 | > 4000 | 0.926 | > 10.2 | 0.962 | > 2 | 0.941 | > 5.12 | 0.775 | 0.91
3 | AMO-1 (haematopoietic neoplasm, suspension) | 0.991 | > 5 | 0.652 | 0.791 | 0.968 | > 10.2 | 0.981 | > 10 | 0.601 | 0.00727 | 0.989 | > 0.5 | 0.512 | 269 | 0.966 | > 10.2 | 0.991 | > 2 | 0.957 | > 5.12 | 0.991 | > 2
4 | BB30-HNC (head and neck, adherent) | 0.948 | > 5 | 0.629 | 0.719 | 0.961 | > 10.2 | 0.954 | > 10 | 0.281 | 0.000976 | 0.81 | 0.256 | 0.532 | 304 | 0.882 | > 10.2 | 0.937 | > 2 | 0.873 | 4.72 | 0.535 | 0.155
5 | BC-1 (B-cell lymphoma, suspension) | 0.985 | > 5 | 0.887 | 4.24 | 0.897 | 9.36 | 0.913 | > 10 | 0.641 | 0.00917 | 0.976 | > 0.5 | 0.61 | 476 | 0.971 | > 10.2 | 0.982 | > 2 | 0.931 | > 5.12 | 0.991 | > 2
6 | BE2-M17 (neuroblastoma, adherent) | 0.987 | > 5 | 0.784 | 2.24 | 0.987 | > 10.2 | 0.969 | > 10 | 0.875 | > 0.064 | 0.948 | > 0.5 | 0.888 | > 4000 | 0.982 | > 10.2 | 0.967 | > 2 | 0.985 | > 5.12 | 0.96 | > 2
7 | BL-41 (Burkitt lymphoma, suspension) | 0.994 | > 5 | 0.644 | 0.722 | 0.619 | 1.25 | 0.986 | > 10 | 0.442 | 0.00288 | 0.992 | > 0.5 | 0.647 | 575 | 0.955 | > 10.2 | 0.984 | > 2 | 0.853 | 2.62 | 0.964 | > 2
8 | BV-173 (chronic myeloid leukaemia, suspension) | 0.858 | 3.36 | 0.56 | 0.456 | 0.61 | 1.24 | 0.894 | 9.49 | 0.599 | 0.00721 | 0.95 | > 0.5 | 0.91 | > 4000 | 0.946 | > 10.2 | 0.893 | 1.88 | 0.737 | 1.37 | 0.95 | > 2
9 | COLO-824 (breast, adherent) |  |  | 0.973 | > 5.12 | 0.975 | > 10.2 | 0.965 | > 10 | 0.805 | 0.0332 | 0.985 | > 0.5 | 0.843 | 2910 | 0.983 | > 10.2 | 0.988 | > 2 | 0.918 | > 5.12 | 0.987 | > 2
10 | EW-24 (Ewing sarcoma, semi-adherent) | 0.992 | > 5 | 0.932 | > 5.12 | 0.993 | > 10.2 | 0.903 | > 10 | 0.949 | > 0.064 | 0.979 | > 0.5 |  |  | 0.663 | 1.71 | 0.988 | > 2 | 0.989 | > 5.12 | 0.71 | 0.449
11 | GA-10 (Burkitt lymphoma, suspension) | 0.991 | > 5 | 0.566 | 0.47 |  |  | 0.985 | > 10 | 0.361 | 0.00177 | 0.983 | > 0.5 |  |  |  |  | 0.927 | > 2 |  |  | 0.646 | 0.294
12 | IM-9 (myeloma, suspension) | 0.992 | > 5 | 0.988 | > 5.12 |  |  | 0.937 | > 10 | 0.97 | > 0.064 | 0.986 | > 0.5 |  |  |  |  | 0.986 | > 2 |  |  | 0.992 | > 2
13 | KARPAS-231 (B-cell leukaemia, suspension) | 0.974 | > 5 | 0.822 | 2.14 | 0.461 | 0.512 | 0.983 | > 10 | 0.36 | 0.00181 | 0.992 | > 0.5 |  |  |  |  | 0.839 | 0.938 |  |  | 0.981 | > 2

Source: the supplement of paper PMC4967469
